target: T1, cell-surface human FGFR1c (amino acids 1-731 of NP_075594) with cell-surface human KLB on … (human, UniProt P11362 22-822); test: cell-based or functional assay
T1 sequence (P11362 22-822, chain 1 of 2): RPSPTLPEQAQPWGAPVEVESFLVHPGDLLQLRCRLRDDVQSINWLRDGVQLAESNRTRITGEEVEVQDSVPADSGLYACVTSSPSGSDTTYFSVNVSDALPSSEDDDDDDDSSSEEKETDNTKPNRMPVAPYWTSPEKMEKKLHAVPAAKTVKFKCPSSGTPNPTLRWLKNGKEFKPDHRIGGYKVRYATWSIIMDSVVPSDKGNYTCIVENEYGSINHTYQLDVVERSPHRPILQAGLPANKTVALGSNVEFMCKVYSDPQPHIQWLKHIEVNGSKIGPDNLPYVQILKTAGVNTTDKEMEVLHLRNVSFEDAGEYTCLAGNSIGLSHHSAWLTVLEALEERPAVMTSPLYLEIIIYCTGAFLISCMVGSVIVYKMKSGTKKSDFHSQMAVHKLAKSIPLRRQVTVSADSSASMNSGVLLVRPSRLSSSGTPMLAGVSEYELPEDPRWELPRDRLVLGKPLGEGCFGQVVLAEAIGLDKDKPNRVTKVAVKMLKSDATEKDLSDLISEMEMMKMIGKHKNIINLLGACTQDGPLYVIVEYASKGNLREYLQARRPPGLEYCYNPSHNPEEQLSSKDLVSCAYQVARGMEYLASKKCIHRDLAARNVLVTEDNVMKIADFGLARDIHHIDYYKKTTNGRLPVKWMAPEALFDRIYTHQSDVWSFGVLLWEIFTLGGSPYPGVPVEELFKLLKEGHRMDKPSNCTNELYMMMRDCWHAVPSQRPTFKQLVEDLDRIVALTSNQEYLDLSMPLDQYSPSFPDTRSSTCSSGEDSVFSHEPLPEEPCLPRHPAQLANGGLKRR
T1 sequence (chain, as listed by the source, chain 2 of 2): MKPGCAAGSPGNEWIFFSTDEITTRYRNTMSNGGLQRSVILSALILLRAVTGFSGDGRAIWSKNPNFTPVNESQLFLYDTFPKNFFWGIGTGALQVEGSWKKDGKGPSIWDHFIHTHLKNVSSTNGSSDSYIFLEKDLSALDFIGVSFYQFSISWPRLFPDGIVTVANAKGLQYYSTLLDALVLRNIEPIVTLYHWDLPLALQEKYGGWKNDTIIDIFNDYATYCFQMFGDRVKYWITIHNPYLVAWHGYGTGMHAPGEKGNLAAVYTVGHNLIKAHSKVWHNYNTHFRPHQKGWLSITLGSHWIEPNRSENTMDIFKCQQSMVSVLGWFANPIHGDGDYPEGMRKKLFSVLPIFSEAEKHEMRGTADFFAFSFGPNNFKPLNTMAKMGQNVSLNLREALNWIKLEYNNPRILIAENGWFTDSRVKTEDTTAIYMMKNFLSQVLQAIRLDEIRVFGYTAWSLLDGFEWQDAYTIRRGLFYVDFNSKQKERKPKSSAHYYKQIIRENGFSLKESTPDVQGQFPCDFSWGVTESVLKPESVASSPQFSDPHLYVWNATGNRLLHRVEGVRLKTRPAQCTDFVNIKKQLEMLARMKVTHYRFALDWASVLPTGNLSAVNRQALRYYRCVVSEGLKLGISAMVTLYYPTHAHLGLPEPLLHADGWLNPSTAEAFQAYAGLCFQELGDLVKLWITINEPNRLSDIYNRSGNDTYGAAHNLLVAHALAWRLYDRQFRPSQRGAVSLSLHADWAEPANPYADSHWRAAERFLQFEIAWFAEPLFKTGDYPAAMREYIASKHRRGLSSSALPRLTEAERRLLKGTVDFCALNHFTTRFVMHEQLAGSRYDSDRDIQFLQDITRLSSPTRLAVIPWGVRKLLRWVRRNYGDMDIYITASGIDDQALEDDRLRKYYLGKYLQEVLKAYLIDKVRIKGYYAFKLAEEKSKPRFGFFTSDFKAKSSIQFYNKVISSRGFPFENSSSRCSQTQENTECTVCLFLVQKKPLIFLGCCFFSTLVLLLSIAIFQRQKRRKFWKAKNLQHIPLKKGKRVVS

% Activation [%]	EC50, SRE-luc activation [µM]	Binder
1.3	0.022	Fusion 4 (Homodimer) (Fc fusion) HPIPDSSPGGGGSGGGGSGGGGSGGGGS[human IgG1 Fc not spelt out]GGGGSGGGGSGGGGSGGGGSPGLPPAPPEPPGILAPQPPDVGSSDPLSMVGPSQGRSPSYAS
5.2	0.0012	Fusion 1 (Heterodimer) (Fc fusion) chain 1: QVQLQESGPGLVKPSETLSLTCTVSGGSISSYYWSWIRQPPGKGLDWIGHIYYSGTTYYNPSLKSRVSISLDTSKNQFSLKLSSVTAADTAVYYCARHLRGYSSGREFDYWGQGTLVTVSSGGGGSGGGGSGGGGSDIQMTQSPSSLSASVGGRVSLTCRASQSIFSYLNWYQQKPGKAPKLLIYAASNLQSGVPSRFSGSGSGTDFTLTISSLQPEDFATYSCQQSYNIPYTFGQGTKLEIKGGGGSGGGGSGGGGS[human IgG4 Fc with S228P (EU numbers) not spelt out] chain 2: HPIPDSSPLLQFGGQVRQRYLYTDDAQQTEAHLEIREDGTVGGAADQSPESLLQLKALKPGVIQILGVKTSRFLCQRPDGALYGSLHFDPEACSFRELLLEDGYNVYQSEAHGLPLHLPGNKSPHRDPAPRGPARFLPLPGLPPAPPEPPGILAPQPPDVGSSDPLSGGGGSGGGGSGGGGSESKYGPPCPPCPAPEFLGGPSVFLFPPKPKDTLMISRTPEVTCVVVDVSQEDPEVQFNWYVDGVEVHNAKTKPREEQFNSTYRVVSVLTVLHQDWLNGKEYKCKVSNKGLPSSIEKTISKAKGQPREPQVYTLPPSQEEMTKNQVSLTCLVKGFYPSDIAVEWESNGQPENNYKTTPPVLDSDGSFFLYSRLTVDKSRWQEGNVFSCSVMHEALHNRFTQKSLSLSPGK
5.3	0.038	scFv8870-IgG-scFv8092 Homodimer (bispecific antibody) EVQLVESGGGVVRPGGSLRLSCAASGFKFDVYGMSWVRQLPGKGLEWVSGISWTGGSSGYADSVKGRFTISRDNGKKSLYLQMNSLRAEDTALYYCTREEDYWGQGTLVTVSSGGGGSGGGGSGGGGS[about 100 residues not spelt out]LTFGGGTKVEIKGGGGSGGGGSGGGGS[human IgG4 Fc with S228P (EU numbers) not spelt out]GGGGSGGGGSGGGGSQVQLQESGPGLVKPSETLSLTCTVSGGSISSYYWSWIRQPPGKGLDWIGHIYYSGTTYYNPSLKSRVSISLDTSKNQFSLKLSSVTAADTAVYYCARHLRGYSSGREFDYWGQGTLVTVSSGGGGSGGGGSGGGGSDIQMTQSPSSLSASVGGRVSLTCRASQSIFSYLNWYQQKPGKAPKLLIYAASNLQSGVPSRFSGSGSGTDFTLTISSLQPEDFATYSCQQSYNIPYTFGQGTKLEIK
7.7	0.00021	scFv8900-IgG-scFv8092 Homodimer (bispecific antibody) QVQLVESGGGVVQPGRSLRLSCVASGFTFSSYGMHWVRQAPGKGLEWVAVISFDGSNKYYADSVKGRFTISRDNSKNTLYLQMNSLRPADTAVYYCAKDRSNYYYFGMDVWGQGTTVTVSSGGGGSGGGGSGGGGSDIVMTQTPLSLPVTPGEPASISCRSSQSLLDSDDGNTYLDWYLQKPGQSPQLLIYTLSYRASGVPDRFSGSGSGTDFTLKISRVEAEDVGVYYCMQRIEFPLTFGGGTKVEIKGGGGSGGGGSGGGGS[human IgG4 Fc with S228P (EU numbers) not spelt out]GGGGSGGGGSGGGGSQVQLQESGPGLVKPSETLSLTCTVSGGSISSYYWSWIRQPPGKGLDWIGHIYYSGTTYYNPSLKSRVSISLDTSKNQFSLKLSSVTAADTAVYYCARHLRGYSSGREFDYWGQGTLVTVSSGGGGSGGGGSGGGGSDIQMTQSPSSLSASVGGRVSLTCRASQSIFSYLNWYQQKPGKAPKLLIYAASNLQSGVPSRFSGSGSGTDFTLTISSLQPEDFATYSCQQSYNIPYTFGQGTKLEIK
1.4	0.015	Fusion 5 (Homodimer) (Fc fusion) HPIPDSSPLLQFGGQVRGGGGSGGGGSGGGGSGGGGS[human IgG1 Fc not spelt out]GGGGSGGGGSGGGGSGGGGSPGLPPAPPEPPGILAPQPPDVGSSDPLSMVGPSQGRSPSYAS
21.4	> 0.01	Fusion 2 (Homodimer) (Fc fusion) EVQLVESGGGVVRPGGSLRLSCAASGFKFDVYGMSWVRQLPGKGLEWVSGISWTGGSSGYADSVKGRFTISRDNGKKSLYLQMNSLRAEDTALYYCTREEDYWGQGTLVTVSSGGGGSGGGGSGGGGS[about 100 residues not spelt out]LTFGGGTKVEIKGGGGSGGGGSGGGGS[human IgG4 Fc with S228P (EU numbers) not spelt out]GGGGSGGGGSGGGGSLLQFGGQVRQRYLYTDDAQQTEAHLEIREDGTVGGAADQSPESLLQLKALKPGVIQILGVKTSRFLCQRPDGALYGSLHFDPEACSFRELLLEDGYNVYQSEAHGLPLHLPGNKSPHRDPAPRGPARFLPLPGLPPAPPEPPGILAPQPPDVGSSDPLSMVGPSQGRSPSYAS

target: T1, cell-surface human FGFR1c (amino acids …); test: cell-based or functional assay; remark: another data set of the same source

% Activation [%]	EC50, SRE-luc activation [µM]	Binder
22.8	0.016	Control hIgG4mutFc-hFGF21(L37-S209) (Fc fusion) [human IgG4 Fc with S228P (EU numbers) not spelt out]GGGGSGGGGSGGGGSLLQFGGQVRQRYLYTDDAQQTEAHLEIREDGTVGGAADQSPESLLQLKALKPGVIQILGVKTSRFLCQRPDGALYGSLHFDPEACSFRELLLEDGYNVYQSEAHGLPLHLPGNKSPHRDPAPRGPARFLPLPGLPPAPPEPPGILAPQPPDVGSSDPLSMVGPSQGRSPSYAS
2.4	0.058	Control scFv8900-hIgG4mutFc (Fc fusion) QVQLVESGGGVVQPGRSLRLSCVASGFTFSSYGMHWVRQAPGKGLEWVAVISFDGSNKYYADSVKGRFTISRDNSKNTLYLQMNSLRPADTAVYYCAKDRSNYYYFGMDVWGQGTTVTVSSGGGGSGGGGSGGGGSDIVMTQTPLSLPVTPGEPASISCRSSQSLLDSDDGNTYLDWYLQKPGQSPQLLIYTLSYRASGVPDRFSGSGSGTDFTLKISRVEAEDVGVYYCMQRIEFPLTFGGGTKVEIKGGGGSGGGGSGGGGS[human IgG4 Fc with S228P (EU numbers) not spelt out]

Reference: patent US20170174769A1 (Regeneron, published 2017)
